Publication PMC3749138
Where a chain is given by its changes, count along the chain named. No constants are given. Whether binding was seen depends on the method and setting. In cells and extracts the contact can be indirect. Some binding calls cover weakened binding; strength is not graded here. Where a sequence is shown, tags or fusion partners need not be part of it.

Chains of the proteins cited; added tags and fusions are not shown.
UniProt O60573: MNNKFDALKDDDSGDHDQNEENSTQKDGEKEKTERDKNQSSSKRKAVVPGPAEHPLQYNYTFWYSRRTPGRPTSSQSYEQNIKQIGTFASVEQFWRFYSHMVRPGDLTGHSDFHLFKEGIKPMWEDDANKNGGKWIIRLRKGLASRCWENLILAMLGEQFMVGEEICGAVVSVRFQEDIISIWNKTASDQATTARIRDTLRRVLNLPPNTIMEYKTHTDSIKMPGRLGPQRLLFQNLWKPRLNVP
UniProt P06730: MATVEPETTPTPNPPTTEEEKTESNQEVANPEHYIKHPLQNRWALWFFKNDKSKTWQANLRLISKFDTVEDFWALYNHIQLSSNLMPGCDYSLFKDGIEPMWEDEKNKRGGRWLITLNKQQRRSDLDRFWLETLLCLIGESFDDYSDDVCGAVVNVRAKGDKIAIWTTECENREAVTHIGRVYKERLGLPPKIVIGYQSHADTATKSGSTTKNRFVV

Legend:
[1] = molecular target: T1, GFP-4E-T Y30A LL35/36AA (human) (UniProt Q9NRA8); test: pull-down; GFP-Trap magnetic beads with 1 mg lysate of cells transfected with GFP-4E-T, NET buffer (50 mM Tris-HCl pH 7.5, 150 mM NaCl, 1 mM EDTA, 0.5% Nonidet P-40, 0.25% gelatin), 1.25 h at 4°C; western blotting with eIF4E1, eIF4E2 and 4E-T antibodies
T1 sequence: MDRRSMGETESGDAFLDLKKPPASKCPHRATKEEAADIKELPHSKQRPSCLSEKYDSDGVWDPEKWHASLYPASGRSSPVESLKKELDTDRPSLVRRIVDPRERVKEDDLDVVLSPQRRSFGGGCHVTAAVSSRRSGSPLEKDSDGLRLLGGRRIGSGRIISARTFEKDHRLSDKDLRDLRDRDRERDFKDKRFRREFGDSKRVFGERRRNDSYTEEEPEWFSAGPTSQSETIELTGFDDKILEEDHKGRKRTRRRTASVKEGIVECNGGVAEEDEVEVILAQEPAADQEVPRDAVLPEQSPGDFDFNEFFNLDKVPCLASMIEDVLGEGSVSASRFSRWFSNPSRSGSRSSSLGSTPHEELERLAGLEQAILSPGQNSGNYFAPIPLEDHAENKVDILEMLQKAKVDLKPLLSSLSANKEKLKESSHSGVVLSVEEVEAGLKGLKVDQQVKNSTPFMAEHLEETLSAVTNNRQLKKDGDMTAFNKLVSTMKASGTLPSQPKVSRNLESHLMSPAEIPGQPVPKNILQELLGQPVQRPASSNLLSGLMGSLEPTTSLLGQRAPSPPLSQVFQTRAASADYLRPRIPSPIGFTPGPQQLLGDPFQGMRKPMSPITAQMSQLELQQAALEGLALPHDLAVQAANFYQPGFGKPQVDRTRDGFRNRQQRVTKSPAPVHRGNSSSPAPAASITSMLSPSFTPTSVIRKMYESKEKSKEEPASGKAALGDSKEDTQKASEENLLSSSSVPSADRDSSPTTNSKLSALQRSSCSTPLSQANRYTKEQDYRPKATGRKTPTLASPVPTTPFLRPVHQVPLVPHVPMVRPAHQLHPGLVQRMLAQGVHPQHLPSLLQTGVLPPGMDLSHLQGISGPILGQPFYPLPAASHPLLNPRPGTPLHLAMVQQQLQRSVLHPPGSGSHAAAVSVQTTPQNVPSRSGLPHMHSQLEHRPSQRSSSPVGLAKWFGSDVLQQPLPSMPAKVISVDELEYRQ

[2] = molecular target: T2, GFP-4E-T (human eIF4E-transporter, wild type) (human) (UniProt Q9NRA8); test: as above
T2 sequence: T1 sequence with A30Y, A35L, A36L

Row | binding [1] | binding [2] | Substance
1 | no binding | binds | eIF4E2 (endogenous) (from UniProt O60573 1-245)
2 | no binding | binds | eIF4E1 (endogenous) (from UniProt P06730 1-217)
